Source: patent US20230159453A1 (COCRYSTAL PHARMA, INC., priority 2020, published 2023)

The molecules below were run against Noro protease (Norovirus, UniProt Q83883) (assay: Norovirus protease inhibition assay (Noro-Norwalk FRET protease assay)). Details: IC50 (μM), peptide substrate 10 μM, 90 minutes at 37° C., compounds 200 μM to 10.2 nM.
In the case of `CC(C)(c1cccc(Cl)c1)C(OC(=O)N[C@@H](CC1CCCCC1)C(=O)N[C@H](C=O)C[C@@H]1CCNC1=O)c1ccccc1` (stereo partly drawn) [Compound C110, 2-(3-Chlorophenyl)-2-methyl-1-phenylpropyl ((S)-3-cyclohexyl-1-oxo-1-(((S)-1-oxo-3-((S)-2-oxopyrrolidin-3-yl)propan-2-yl)amino)propan-2-yl) carbamate], the IC50 is reported as 1.3 µM.
`CC(C)(COC(=O)N[C@H](C(=O)N[C@@H](C[C@@H]1CCNC1=O)C(O)S(=O)(=O)O)C(C)(C)C)c1cccc(Cl)c1` (stereo partly drawn) [Compound C111, Sodium (2S)-2-((S)-2-(((2-(3-chlorophenyl)-2-methylpropoxy)carbonyl)amino)-3,3-dimethylbutanamido)-1-hydroxy-3-((S)-2-oxopyrrolidin-3-yl)propane-1-sulfonate] gave an IC50 of 40.7 µM.
Work on `CC(=O)N1CCC2(CC1)CC(CC(NC(=O)[C@@H](CC1CCCCC1)NC(=O)c1cc3ccccc3[nH]1)C(=O)C(N)=O)C(=O)N2` (stereo partly drawn) [Compound C112, N-((2R)-1-((1-(8-acetyl-2-oxo-1,8-diazaspiro[4.5]decan-3-yl)-4-amino-3,4-dioxobutan-2-yl)amino)-3-cyclohexyl-1-oxopropan-2-yl)-1H-indole-2-carboxamide] yielded an IC50 of 109 µM.
`CC(C)(c1cccc(Cl)c1)C(OC(=O)N[C@@H](CC1CCCCC1)C(=O)N[C@@H](C[C@@H]1CCNC1=O)C(=O)C(N)=O)c1ccccc1` (stereo partly drawn) [Compound C113, 2-(3-Chlorophenyl)-2-methyl-1-phenylpropyl ((S)-1-(((S)-4-amino-3,4-dioxo-1-((S)-2-oxopyrrolidin-3-yl)butan-2-yl)amino)-3-cyclohexyl-1-oxopropan-2-yl) carbamate] gave an IC50 of 105 µM.
`CC(C)C[C@H](NC(=O)OC(Cc1cccc(Cl)c1)c1ccccc1)C(=O)N[C@@H](C[C@@H]1CCNC1=O)C(O)S(=O)(=O)O` (stereo partly drawn) [Compound C114, Sodium (2S)-2-((2S)-2-(((2-(3-chlorophenyl)-1-phenylethoxy)carbonyl)amino)-4-methylpentanamido)-1-hydroxy-3-((S)-2-oxopyrrolidin-3-yl) propane-1-sulfonate] showed an IC50 of 1.7 µM.
In the case of `O=C(N[C@@H](CC1CCCCC1)C(=O)N[C@@H](C[C@@H]1CCNC1=O)C(O)S(=O)(=O)O)OC(Cc1cccc(Cl)c1)c1ccccc1` (stereo partly drawn) [Compound C115, Sodium (2S)-2-((2S)-2-(((2-(3-chlorophenyl)-1-phenylethoxy)carbonyl)amino)-3-cyclohexylpropanamido)-1-hydroxy-3-((S)-2-oxopyrrolidin-3-yl)propane-1-sulfonate], the IC50 is reported as 2.2 µM.
In the case of `NC(=O)C(=O)[C@H](C[C@@H]1CCNC1=O)NC(=O)[C@H](CC1CCCCC1)NC(=O)OC(Cc1cccc(Cl)c1)c1ccccc1` (stereo partly drawn) [Compound C116, 2-(3-Chlorophenyl)-1-phenylethyl ((S)-1-(((S)-4-amino-3,4-dioxo-1-((S)-2-oxopyrrolidin-3-yl)butan-2-yl)amino)-3-cyclohexyl-1-oxopropan-2-yl)carbamate], the IC50 is reported as 98.1 µM.
`COc1cccc2[nH]c(C(=O)N[C@@H](CC3CCCCC3)C(=O)NC(CC3CC4(CCN(C(C)=O)CC4)NC3=O)C(=O)C(N)=O)cc12` (stereo partly drawn) [Compound C117, N-((2S)-1-((1-(8-Acetyl-2-oxo-1,8-diazaspiro[4.5]decan-3-yl)-4-amino-3,4-dioxobutan-2-yl)amino)-3-cyclohexyl-1-oxopropan-2-yl)-4-methoxy-1H-indole-2-carboxamide] showed an IC50 of 77.7 µM.
With `CC(C)C(C)(C)C(NC(=O)OCc1ccccc1)C(=O)N[C@H](C=O)C[C@@H]1CCNC1=O` (stereo partly drawn) [Compound C118, Benzyl (3,3,4-trimethyl-1-oxo-1-(((S)-1-oxo-3-((S)-2-oxopyrrolidin-3-yl)propan-2-yl)amino)pentan-2-yl)carbamate] the IC50 was 119 µM.
`NC(=O)C(=O)C(CC1CC2(CCCCC2)NC1=O)NC(=O)[C@H](CC1CCCCC1)NC(=O)c1cc2ccccc2[nH]1` (stereo partly drawn) [Compound C119, N-((2S)-1-((4-amino-3,4-dioxo-1-(2-oxo-1-azaspiro[4.5]decan-3-yl)butan-2-yl)amino)-3-cyclohexyl-1-oxopropan-2-yl)-1H-indole-2-carboxamide] was tested, and the IC50 was 67.6 µM.
Work on `CC(C)(c1cccc(Cl)c1)C(OC(=O)N[C@@H](CC1CCCCC1)C(=O)N[C@@H](C[C@@H]1CCNC1=O)C(=O)C(N)=O)c1cccc(F)c1` (stereo partly drawn) [Compound C120, 2-(3-Chlorophenyl)-1-(3-fluorophenyl)-2-methylpropyl ((S)-1-(((S)-4-amino-3,4-dioxo-1-((S)-2-oxopyrrolidin-3-yl)butan-2-yl)amino)-3-cyclohexyl-1-oxopropan-2-yl) carbamate] yielded an IC50 of 62.6 µM.
`CC(=O)N1CCC2(CC1)C[C@@H](C[C@H](NC(=O)[C@H](CC1CCCCC1)NC(=O)c1cc3ccccc3[nH]1)C(=O)C(N)=O)C(=O)N2` [Compound C121, N—((S)-1-(((S)-1-((R)-8-acetyl-2-oxo-1,8-diazaspiro[4.5]decan-3-yl)-4-amino-3,4-dioxobutan-2-yl)amino)-3-cyclohexyl-1-oxopropan-2-yl)-1H-indole-2-carboxamide] showed an IC50 of 107 µM.
`CC(C)(c1cccc(Cl)c1)C(OC(=O)N[C@@H](CC1CCCCC1)C(=O)N[C@@H](C[C@@H]1CCNC1=O)C(=O)C(N)=O)c1ccc2ccccc2c1` (stereo partly drawn) [Compound C122, 2-(3-Chlorophenyl)-2-methyl-1-(naphthalen-2-yl)propyl ((S)-1-(((S)-4-amino-3,4-dioxo-1-((S)-2-oxopyrrolidin-3-yl)butan-2-yl)amino)-3-cyclohexyl-1-oxopropan-2-yl)carbamate] was tested, and the IC50 was 35.2 µM.
Molecule `CC1(C)CC(CC(NC(=O)[C@H](CC2CCCCC2)NC(=O)c2cc3ccccc3[nH]2)C(=O)C(N)=O)C(=O)N1` (stereo partly drawn) [Compound C123, N-((2S)-1-((4-amino-1-(5,5-dimethyl-2-oxopyrrolidin-3-yl)-3,4-dioxobutan-2-yl)amino)-3-cyclohexyl-1-oxopropan-2-yl)-1H-indole-2-carboxamide] has an IC50 of 121 µM.
For `Cc1cccc(C(OC(=O)N[C@@H](CC2CCCCC2)C(=O)N[C@@H](C[C@@H]2CCNC2=O)C(=O)C(N)=O)C(C)(C)c2cccc(Cl)c2)c1` (stereo partly drawn) [Compound C124, 2-(3-chlorophenyl)-2-methyl-1-(m-tolyl)propyl ((S)-1-(((S)-4-amino-3,4-dioxo-1-((S)-2-oxopyrrolidin-3-yl)butan-2-yl)amino)-3-cyclohexyl-1-oxopropan-2-yl) carbamate], the IC50 was 36.5 µM.
`CC(=O)N1CCC2(CC1)C[C@H](C[C@H](NC(=O)[C@H](CC1CCCCC1)NC(=O)c1cc3ccccc3[nH]1)C(=O)C(N)=O)C(=O)N2` [Compound C125, N—((S)-1-(((S)-1-((S)-8-acetyl-2-oxo-1,8-diazaspiro[4.5]decan-3-yl)-4-amino-3,4-dioxobutan-2-yl)amino)-3-cyclohexyl-1-oxopropan-2-yl)-1H-indole-2-carboxamide] gave an IC50 of 47.2 µM.
For `CC(=O)N1CCC2(CC1)CC(CC(NC(=O)[C@H](CC1CCCCC1)NC(=O)c1cc3cc(Cl)ccc3[nH]1)C(=O)C(N)=O)C(=O)N2` (stereo partly drawn) [Compound C126, N-((2S)-1-((1-(8-acetyl-2-oxo-1,8-diazaspiro[4.5]decan-3-yl)-4-amino-3,4-dioxobutan-2-yl)amino)-3-cyclohexyl-1-oxopropan-2-yl)-5-chloro-1H-indole-2-carboxamide], the IC50 was over 200 µM.
For `CC(C)(c1cccc(Cl)c1)C(OC(=O)N[C@@H](CC1CCCCC1)C(=O)N[C@H](C=O)C[C@@H]1CCNC1=O)c1ccc2ccccc2c1` (stereo partly drawn) [Compound C127], the IC50 was 5.7 µM.
